The values below come from the antibiotic and cytotoxicity screens of Wong et al. (2023).

Some of the results follow.

One test has as its system HSkMC. In words: cytotoxicity call (relative viability < 0.9). The following applies: 10 µM.
The next test deals with HepG2. In words: cytotoxicity call (relative viability < 0.9). The following applies: 10 µM.
The next test deals with S. aureus RN4220. Briefly: growth inhibition call (relative growth <= 0.2). Particulars: 50 µM.

In the case of `O=C(CCCCCNC(=O)OCc1ccc(CO[C@@H]2C[C@H](c3ccc(Br)cc3)C=C(C(=O)N3CCCCCCC3)O2)cc1)NO`, the cytotoxicity call in the test with HSkMC and in the test with HepG2 was “inactive” in each case. In addition, the growth inhibition call in the test with S. aureus RN4220 is “inactive”.
In the case of `CCNC(=O)C[C@@H]1C=C[C@H](NC(=O)C2CCOCC2)[C@H](CO)O1`, the cytotoxicity call with HSkMC and in the test on HepG2 was “inactive” in each case. Besides, the growth inhibition call in the test on S. aureus RN4220 is “inactive”.
For the compound `C[C@H](CO)N1C[C@H](C)[C@@H](CN(C)Cc2ccc3c(c2)OCO3)OCCCC[C@H](C)Oc2ccc(NC(=O)Cc3ccccc3)cc2C1=O`, the cytotoxicity call in the test with HSkMC and with HepG2 was “inactive” in each case. Further, the growth inhibition call with S. aureus RN4220 is “inactive”.
`CCCCC/C=C\C/C=C\C/C=C\CCCCCCC(=O)O`: the cytotoxicity call in the test on HSkMC and in the test with HepG2 was “inactive” each time. Also, the growth inhibition call in the test with S. aureus RN4220 is “inactive”.
Take `C[C@@H]1CCCCO[C@H](CN(C)Cc2ccncc2)[C@H](C)CN([C@H](C)CO)C(=O)c2cc(NC(=O)Nc3ccc(F)cc3)ccc2O1`: the cytotoxicity call in the test with HSkMC and in the test on HepG2 was “inactive” throughout. Besides, in the test on S. aureus RN4220, the growth inhibition call is “inactive”.
`CC(C)C[C@H]1NC(=O)N(C)C1=O`: the cytotoxicity call in the test on HSkMC and in the test on HepG2 was “inactive” in each case. Moreover, the growth inhibition call in the test with S. aureus RN4220 is “inactive”.
In the case of `C[C@@H]1CCCCO[C@@H](CN(C)S(=O)(=O)c2ccc(Cl)cc2)[C@H](C)CN([C@@H](C)CO)C(=O)c2cc(NC(=O)CCC(F)(F)F)ccc2O1`, the cytotoxicity call in the test on HSkMC is “inactive”. In addition, the cytotoxicity call with HepG2 is “active”. For the same compound, the growth inhibition call with S. aureus RN4220 was “inactive”.
With `C[C@H]1CN([C@@H](C)CO)C(=O)Cc2cc(NC(=O)Nc3ccc(F)cc3)ccc2O[C@H]1CN(C)Cc1ccc(C(=O)Nc2ccccc2N)cc1`, the cytotoxicity call in the test on HSkMC and in the test on HepG2 was “active” throughout. Further, in the test with S. aureus RN4220, the growth inhibition call is “inactive”.
Turning to `O=C(N[C@H]1CC[C@H](CC(=O)N2CCOCC2)O[C@H]1CO)c1ccc2c(c1)OCO2`, the cytotoxicity call in the test on HSkMC and in the test with HepG2 was “inactive” throughout. Also, the growth inhibition call in the test with S. aureus RN4220 was “inactive”.
Regarding `C[C@H](CO)N1C[C@H](C)[C@@H](CN(C)S(=O)(=O)c2cn(C)cn2)Oc2ccc(NC(=O)NC3CCCCC3)cc2C1=O`, the cytotoxicity call in the test with HSkMC and with HepG2 was “inactive” in each case. Moreover, the growth inhibition call in the test with S. aureus RN4220 was “inactive”.
As to `C[C@@H]1CN([C@H](C)CO)S(=O)(=O)c2ccc(-c3cncnc3)cc2O[C@@H]1CN(C)C(=O)c1ccc2c(c1)OCO2`, the cytotoxicity call in the test with HSkMC and in the test with HepG2 was “inactive” in each case. Also, the growth inhibition call in the test on S. aureus RN4220 is “inactive”.
Take `O=C(C[C@H]1C=C[C@@H](NC(=O)CN2CCOCC2)[C@@H](CO)O1)NCCc1ccncc1`: the cytotoxicity call in the test on HSkMC and in the test on HepG2 was “inactive” in each case. Besides, the growth inhibition call in the test on S. aureus RN4220 was “inactive”.
For `CC(C=CC1(O)C(C)=CC(=O)CC1(C)C)=CC(=O)O` (mixture of isomers) [ABSCISIC ACID (cis,trans; +/-) ], the cytotoxicity call in the test on HSkMC and in the test with HepG2 was “inactive” each time.
As for `CC(=O)OC1CCC2(C)C(CCC3(C)C2CC=C2C4CC(C)(C)CCC4(C)CCC23C)C1(C)C` (stereo not drawn) [beta-AMYRIN ACETATE ], the cytotoxicity call with HSkMC and with HepG2 was “inactive” each time.
For `CC(=O)OC1CCC2(C)C(CCC3(C)C2CC=C2C4CC(C)(C)CCC4(C)CCC23C)C1(C)C` (stereo not drawn) [beta-AMYRIN ACETATE], in the test on S. aureus RN4220, the growth inhibition call is “inactive”.
`COC1C(C(=O)O)OC(C)C(O)C1O.COC1OC(C(=O)O)C(O)C(O)C1O` (stereo not given) [ALGINIC ACID [Mol Wt ~200,000; monomers shown] ]: in the test with HSkMC, the cytotoxicity call was “inactive”. Besides, the cytotoxicity call in the test with HepG2 is “active”.
`CC(C)CCC[C@@H](C)[C@H]1CC[C@H]2[C@@H]3C[C@@H](O)[C@@]4(O)C[C@@H](O)CC[C@]4(C)[C@H]3CC[C@]12C` [CHOLESTAN-3beta,5alpha,6beta-TRIOL]: in the test with S. aureus RN4220, the growth inhibition call was “inactive”.
In the case of `CCCCCC=CCCC(=O)NC1C(Oc2c3cc4cc2Oc2ccc(cc2Cl)C(OC2OC(CO)C(O)C(O)C2NC(C)=O)C2NC(=O)C(NC(=O)C4NC(=O)C4NC(=O)C(Cc5ccc(c(Cl)c5)O3)NC(=O)C(N)c3ccc(O)c(c3)Oc3cc(O)cc4c3)c3ccc(O)c(c3)-c3c(OC4OC(CO)C(O)C(O)C4O)cc(O)cc3C(C(=O)O)NC2=O)OC(CO)C(O)C1O` (stereo not given) [TEICOPLANIN [A(2-1) shown] ], the cytotoxicity call in the test on HSkMC and in the test on HepG2 was “inactive” throughout.
Regarding `CC(=O)C12OC1(C)CC1C3CC=C4CC(O)CCC4(C)C3CCC12C` (stereo not drawn) [16beta-METHYL-16(17)-EPOXY-5-PREGNENOLONE], the growth inhibition call with S. aureus RN4220 is “inactive”.
Same read-out and setting: then `CCCCCC=CCCC(=O)NC1C(Oc2c3cc4cc2Oc2ccc(cc2Cl)C(OC2OC(CO)C(O)C(O)C2NC(C)=O)C2NC(=O)C(NC(=O)C4NC(=O)C4NC(=O)C(Cc5ccc(c(Cl)c5)O3)NC(=O)C(N)c3ccc(O)c(c3)Oc3cc(O)cc4c3)c3ccc(O)c(c3)-c3c(OC4OC(CO)C(O)C(O)C4O)cc(O)cc3C(C(=O)O)NC2=O)OC(CO)C(O)C1O` (stereo not given) [TEICOPLANIN [A(2-1) shown]], with “active”.
Same read-out and setting: then `CC1=CCCC(C)=CCC(C)(C)C=CC1` [HUMULENE (alpha)], with “inactive”; and `COC1C(C(=O)O)OC(C)C(O)C1O.COC1OC(C(=O)O)C(O)C(O)C1O` (stereo not given) [ALGINIC ACID [Mol Wt ~200,000; monomers shown]], with “inactive”.
In the case of `COC1C(O)CC(=O)OC(C)CC=CC=CC(O)C(C)CC(CC=O)C1OC1OC(C)C(OC2CC(C)(O)C(OC(=O)CC(C)C)C(C)O2)C(N(C)C)C1O` (stereo not given) [KITASAMYCINS [A1 shown] ], the cytotoxicity call with HSkMC and with HepG2 was “inactive” each time.
Take `CC(=O)C12OC1(C)CC1C3CC=C4CC(O)CCC4(C)C3CCC12C` (stereo not drawn) [16beta-METHYL-16(17)-EPOXY-5-PREGNENOLONE ]: the cytotoxicity call in the test with HSkMC and with HepG2 was “inactive” throughout.
For the compound `C[C@H](CO)N1C[C@H](C)[C@H](CN(C)Cc2ccc(C(=O)Nc3ccccc3N)cc2)Oc2ccc(NS(=O)(=O)c3ccc(Cl)cc3)cc2CC1=O`, the cytotoxicity call in the test on HSkMC and with HepG2 was “inactive” in each case. Also, the growth inhibition call in the test on S. aureus RN4220 is “inactive”.
Regarding `CC(C)(CO)C(O)C(=O)NCCC(=O)[O-].[Na+]` (stereo not given) [PANTOTHENIC ACID(d) Na salt ], the cytotoxicity call in the test on HSkMC (human skeletal muscle cells) and in the test on HepG2 was “inactive” throughout.
As for `CC(C=CC=C(C)C=CC1=C(C)C(=O)CCC1(C)C)=CC=CC=C(C)C=CC=C(C)C=CC1=C(C)C(=O)CCC1(C)C` [CANTHAXANTHIN (euglenanone)], the growth inhibition call in the test with S. aureus RN4220 is “inactive”.
